# Whole data set: some 33,000 sequences, median “E-score (-0.5 to 0.5)” near -0.016, cut for the highest 2% near 0.31. This is one part of the list.
# Molecular target: Cst6 (UniProt P40535)
# Test: PBM E-score (8-mer binding enrichment) (E-score (-0.5 to 0.5)); higher = stronger / more preferred TF binding; most listed sequences are background and not binding sites
# Settings: protein concentration: 200 nM; construct: GST-DNA-binding domain
# Method in brief: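 PURExpress in vitro transcription/translation supplied GST-tagged yeast transcription factors, either full-length or DNA-binding domain. Applied at about 100-200 nM to universal all-10-mer Agilent arrays double-stranded by primer extension, the bound protein was detected with fluorescent anti-GST. E-scores, modified Wilcoxon-Mann-Whitney statistics, were given by the Universal PBM Analysis Suite to ungapped eight-base words pooled with their reverse complements after masliner normalisation.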
row,Sequence,PBM E-score
1,GGGGCTGA,-0.23
2,CTGATGTC,0.287
3,ACTGAACC,-0.208
4,AACGGCGA,0.301
5,GGGCATCA,0.123
6,CGGTACAC,-0.126
7,GACTGATA,-0.143
8,AGCTCCGC,-0.265
9,ACTAACGC,-0.0588
10,AACAAGAC,0.0788
11,AATGGTGC,0.0118
12,AGGGGGGA,-0.325
13,ATTCTTCA,0.0478
14,CACTGGGA,-0.101
15,TAGTTCCA,0.0367
16,AATATCTG,0.046
17,TAAACAAA,0.207
18,CGGCTTGA,-0.0221
19,CAACGCCC,-0.166
20,CTACAATC,0.118
21,CCGACAGG,-0.152
22,ATCGCGTG,0.0786
23,CAATACAG,-0.0247
24,CTTTGGAA,0.0614
25,CGGATATA,0.201

row,Sequence,PBM E-score
1,CGCTGCTC,-0.267
2,CCTTAATC,-0.119
3,AAATTCGC,0.211
4,CAGGGCCC,-0.335
5,CGTATTTA,0.358
6,AGGCTACA,-0.146
7,ACTCTCAA,-0.0131
8,AAGGTTAG,-0.0685
9,CGATCAGC,-0.0539
10,GGCCAGTA,-0.0588
11,AGATCCCG,-0.0994
12,CACCTCTA,0.0369
13,CTGTTAAC,0.235
14,CCTTACCA,-0.119
15,CCAGCACC,-0.316
16,ACTTAAAG,-0.0617
17,AATGTTAT,0.0813
18,ACCACCCC,-0.294
19,CACGTGCA,-0.0386
20,CTTAGCAA,-0.0618
21,ACTGATTC,0.128
22,GAAATTCA,0.193
23,AACCTATG,0.0657
24,AGCTTAAA,-0.0393
25,CGGTAAGC,-0.169

row,Sequence,PBM E-score
1,CCGCAAGC,-0.17
2,GTCGCGAC,0.191
3,GGACCTCA,-0.137
4,GCTTCAAA,-0.0353
5,ATGAGGGC,-0.185
6,AGAACATC,-0.0776
7,AATGTGCG,0.16
8,ACAAAGGC,-0.00565
9,AACGTGCC,0.0635
10,GGCACTGA,0.14
11,AGCTTCTG,-0.23
12,CTAACTTC,0.1
13,CACCCGCA,-0.105
14,AACAACAT,0.0753
15,GCGCTTAC,0.0667
16,AGTGTAGG,-0.0607
17,ACTCAAGT,-0.053
18,GGGCTACA,-0.136
19,TGCGGACA,0.196
20,CACAGAGC,0.0246
21,AGATTTTG,0.121
22,GACATAAC,0.219
23,TAAACCCA,0.0469
24,CTTATCGA,0.0824
25,AGCTCCAT,-0.081

row,Sequence,PBM E-score
1,GGTATATA,0.251
2,ACACTATA,0.133
3,CATGAGGC,-0.0607
4,GTCTATAA,0.102
5,ATCAACAG,0.179
6,AGATAGAA,-0.042
7,ACAGGGAC,-0.15
8,CTCCGTGC,-0.107
9,GCTTCTGA,-0.0301
10,AGACATGA,0.0915
11,GGAACTTA,0.0321
12,AAGAGCGT,-0.0143
13,ATTCACAC,0.134
14,GCTACGCA,-0.0483
15,GCGATGCC,-0.135
16,GTGAGCAA,-0.0428
17,CCTAGGAC,-0.286
18,GAGTCAGC,-0.0801
19,CCCCTCAC,-0.128
20,ACAAATCG,0.0465
21,AAGATAGG,-0.037
22,AGCATATG,-0.166
23,ATTGGGGC,-0.109
24,AAGGCCCG,-0.255
25,ATTGACTG,0.0299

row,Sequence,PBM E-score
1,TTATACAA,0.244
2,ATTTTCGG,0.0362
3,CCGGGACG,-0.255
4,CATCTCCA,-0.0317
5,ACGAACAT,0.102
6,CGCTGTAA,0.101
7,ACACATTG,0.0817
8,CTTCTGGA,-0.161
9,AGAATTCA,0.0373
10,TGCTTCCA,-0.0816
11,AGGGCCAG,-0.312
12,ACTGCAGT,-0.072
13,GGCCTCCC,-0.283
14,ACTCCCAT,-0.0198
15,CATCCGAC,-0.0588
16,ACAGGATG,-0.00772
17,ACAGGAGA,-0.0136
18,ACTCCCAG,-0.205
19,TGGGAGAA,-0.157
20,ATCAGCCG,0.0405
21,ACATCCGC,0.153
22,AGCCCTAC,-0.0362
23,GTGTTGCA,0.0681
24,CAATAGCG,-0.0881
25,CTATTAAC,0.121

row,Sequence,PBM E-score
1,GGGATTAA,-0.177
2,ATAAGGAA,-0.038
3,GTCATCTA,0.368
4,GACATGCC,-0.0278
5,AGAAATCT,0.161
6,ACCGCTGC,-0.223
7,CATTGTAA,0.0849
8,CATCATGA,0.363
9,ACGACTCC,-0.181
10,AACCGCAG,-0.16
11,CCTAACGC,0.0556
12,CATCAGTA,0.164
13,AGCTGAAT,0.0198
14,AACCGAGG,-0.209
15,CGTTCCTC,-0.142
16,CACTGTTA,0.0044
17,CCCCGCCG,-0.199
18,GAGTTGTA,0.0413
19,CATTAACA,0.137
20,CGACTGAG,-0.218
21,AGTGGAAT,-0.0194
22,ATAACTTA,0.22
23,AAATTGTT,0.227
24,CCACGCAC,0.0591
25,ATATGGTC,-0.0011

row,Sequence,PBM E-score
1,ATCTGCCA,-0.149
2,CTCGCTTA,0.0386
3,CTGACCTA,-0.0164
4,GGAGGGCC,-0.309
5,ACCACACA,0.0846
6,ACAGCTGC,-0.0617
7,ATAACCTG,-0.122
8,ATGATTGA,0.182
9,AAGTCGCA,0.022
10,CCATAAGC,-0.214
11,AGACGGCA,0.191
12,ATGGCGCC,0.0258
13,AATCGCGA,0.0502
14,TATGTCAA,0.378
15,CCGATCCG,-0.0955
16,ATACCTCG,-0.0186
17,CCTATCGC,-0.109
18,AAGCGGGC,-0.316
19,GATTGACA,0.123
20,AGGGTCTG,-0.333
21,AGTCTAAT,0.063
22,CAGACCAG,-0.181
